Publication PMC12136788
The other results are listed elsewhere or left out.

T1: UNK ZnF1-6 (called full-length) (human, UniProt Q9C0B0 30-357)
T1 sequence: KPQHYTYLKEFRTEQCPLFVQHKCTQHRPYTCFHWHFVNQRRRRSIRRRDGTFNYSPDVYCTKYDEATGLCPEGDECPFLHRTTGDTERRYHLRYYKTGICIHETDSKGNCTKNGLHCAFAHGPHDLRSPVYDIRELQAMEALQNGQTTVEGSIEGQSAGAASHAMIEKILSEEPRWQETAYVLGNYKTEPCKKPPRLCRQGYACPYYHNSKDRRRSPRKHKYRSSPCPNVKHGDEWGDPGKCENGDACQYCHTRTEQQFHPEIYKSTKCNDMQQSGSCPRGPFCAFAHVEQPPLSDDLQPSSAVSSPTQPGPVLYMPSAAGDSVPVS

B1: chr1:92323927:92324037:+|CDS|ENSG00000122484|unk|FALSE|unique (ssRNA)
RNA: GGGAGUUCUACAGUCCGACGAUCAGUGCAGAGCAUUUUAAGAGAAAAUUUGCCAAAUCAAACCAAGUGUCUAGGUCAGUGUCUAGUUCAGUGCAGGUGUGUCCUGAAGUUGGAAAGAGAAACUUACUUAAAGUUUUGAAGGAGCAACAGAGGAUUGAGCAUCA
B2: chr7:99705035:99705499:-|three_prime_utr|ENSG00000160870|control|control|control (ssRNA)
RNA: GGGAGUUCUACAGUCCGACGAUCGUUUGCUCUUUAAGAAAGCUGUGCCCCAGAACACCAGAGACCUCAAAUUACUUUACAAAUAGAACCCUGAAAUGAAGACGGGCUUCAUCCAAUGUGCUGCAUAAAUAAUCAGGGAUUCUGCAACAGAGGAUUGAGCAUCA
B3: chr3:49657245:49657349:+|CDS|ENSG00000164061|unk|total|mutant (ssRNA)
RNA: GGGAGUUCUACAGUCCGACGAUCCAGCCGCCGUGGCAUCAAGAAGCGGCACUCCAUGCCACGCCUGCGGGAUGCCUGUGAGCCCGAGUCUGGGACUGAGCCCUGUGUGGUCAGGAGGAUUGCCGACAGCAGCGUGCAGACAGACAACAGAGGAUUGAGCAUCA
B4: chr4:57023444:57023561:+|CDS|ENSG00000047315|unk|total|mutant (ssRNA)
RNA: GGGAGUUCUACAGUCCGACGAUCGAAUUGGAGAGCACCAACCGACGCUAUACCAAGAGAGACUGCCGCACUUUUCUCAGAACCCGCGAGACGGGCAUUGUGGAUCAGGUUAUGGUAACUCUCAAUCAGGAAGGAUAUAAAUUUCAACAGAGGAUUGAGCAUCA
B5: chr5:136976780:136976881:-|3pUTR|ENSG00000152377|msi1|total|mutant (ssRNA)
RNA: GGGAGUUCUACAGUCCGACGAUCCUUAAAUCCGCAUGUUCCAAUCCAGUCGGCAUUGCCUGAAUACAGCCGCAUCAUACCUACCGUUGGUCUCCGAUAAGAAAUGAACUACUUGAUACCGCAAAGUCCUUUGGCUUCGUAAAUCAACAGAGGAUUGAGCAUCA
B6: chr4:174259701:174259819:-|CDS|ENSG00000164117|unk|total|mutant (ssRNA)
RNA: GGGAGUUCUACAGUCCGACGAUCAAAUCCACUUGGGGUCACUGUUCCAUAUACAAUAAGAACCCACCUUCCGGAUUUUCUUUCCGAAAAUUGUAUAUGCAGCUGGAUGAAGGCAGCCUCACCUUUAAUGCCAACCCAGAUGAGCAACAGAGGAUUGAGCAUCA

What follows are binders tested against T1, UNK ZnF1-6 (called full-length) (assay: nsRBNS (natural sequence RNA bind-n-seq); RBNS binding buffer (assumed for nsRBNS): 25 mM Tris pH 7.5, 150 mM KCl, 3 mM MgCl2, 0.01% Triton X-100, 500 ug/ml BSA, 20 U/ml SUPERase-In, 4 C; UNK is unkempt and MSI1 is Musashi-1; names of the RNAs are library labels; protein concentration not given here; high values mean tight binding).

Binder	binding signal
B1	0.468 enrichment R
B2	0.659 enrichment R
B3	0.785 enrichment R
B4	0.541 enrichment R
B5	0.481 enrichment R
B6	0.452 enrichment R
